{"source": "paper PMC5144080", "about": "“GSK-3β controls NF-kappaB activity via IKKγ/NEMO” (Scientific Reports, 2016)", "target": "the molecule itself", "assay": "native gel or EMSA; part of the anti-GFP immunoprecipitate from transfected HEK293 cells examined by native gel electrophoresis to detect NEMO dimerization", "data": [{"protein": "GFP-tagged triple-mutated NEMO-S8, 17, 31A (natural protein, also called triple mutant S8, 17, 31A; S8A, S17A, S31A mutant of NEMO; source: HEK293, transfected, in lysate) not shown", "values": [{"measurement": "stoichiometry N", "result": 2}]}]}
